In PubChem BioAssay AID1345082 (National Center for Advancing Translational Sciences (NCATS), 2018):
Out of some 94,000 compounds screened, about 4,000 (4.3%) were called active. Inconclusive means that the source gave no clear call. Such entries were picked first, then a sample of the others. Calls come from the whole dose curve; as a rule, active = well fitted inhibition curve with a large enough effect; inconclusive = small, poorly fitted or top-dose-only effect; inactive = no such curve, though single readings can be large or run the other way. Potencies of inconclusive entries are doubtful fits and often do not repeat.

Assay: Cytotoxic Profiling in NIH 3T3 Cell Line of Diverse Libraries Using Quantitative High-Throughput Screening; note: nearly all actives have a fitted effect of over 55% in size
Settings: NIH 3T3 viability, CellTiter-Glo ATP luminescence, 48-72 h; series mostly up to 96.7 µM
Outline: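 Cells were seeded at 400 per well, treated with pin-transferred compound, and kept 48 or 72 hr at 37 °C before CellTiter-Glo addition and luminescence imaging of cellular ATP.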
Potency is the fitted concentration of half-maximal effect; tags give direction and shape of the fitted curve.

Compound | Potency
Cc1ccc(CN2CCC(Oc3cnc4c(ccn4CCN[S+](C)(=O)[O-])c3)CC2)c(F)c1 | inconclusive: 50.1 µM [inhibitor, single point]
C[C@]1(O)CCN(C(=O)c2cccc(Oc3ccccc3)c2)C[C@@H]1O | inactive
CNC(=O)[C@@H]1CN(C(=O)c2cccn2C)C[C@H]1COC | inactive
Cc1ccccc1N(C)C1CN(Cc2cncs2)C1 | inconclusive: 56.2 µM [inhibitor, partial curve, poor fit]
CN1Cc2nc(Nc3ccccc3F)ccc2OCC1=O | inconclusive: 63.1 µM [inhibitor, full curve]
Cc1cccc(NC(=O)Cn2c(-c3cccc(Cl)c3)nc(C)c(CCO)c2=O)c1 | inconclusive: 44.7 µM [inhibitor, partial curve, poor fit]
CCOC(=O)c1ccc(NC(=O)Cn2ccn3nc4c(c3c2=O)CCCCC4)cc1 | inconclusive: 44.7 µM [inhibitor, partial curve, poor fit]
Cc1cccc(-c2nc3ccc(C(=O)N4C(C)CCCC4C)cc3o2)n1 (centres undefined) | inconclusive: 79.4 µM [inhibitor, partial curve, poor fit]
CN1CCN(c2ccc(-c3cc4c(ccn4C)c(C(=O)NCC4CCC(=O)N4)n3)cc2)CC1 (centres undefined) | active: 28.2 µM
c1cncc(CN2CCC(OC3CCN(Cc4ccncc4)CC3)CC2)c1 | inactive
O=C(CC1C(=O)NCCN1Cc1cccc(Oc2ccccc2)c1)NCc1ccoc1 (centres undefined) | inconclusive: 44.7 µM [inhibitor, partial curve]
O=[S+]([O-])(NC1CCN(Cc2cccc(-c3ccc(F)c(F)c3)c2)CC1)c1cccc(C(F)(F)F)c1 | active: 14.1 µM
O=C(Nc1cccc(Cl)c1)[C@@H]1C[C@@H](c2ccc(F)cc2)N([S+](=O)([O-])c2ccccc2)C1 | inconclusive: 17.8 µM [inhibitor, full curve, poor fit]
Cc1ccccc1C(=O)N1CCn2c(nn(-c3ccc(F)cc3)c2=O)C1 | inconclusive: 89.1 µM [inhibitor, partial curve, poor fit]
CCC(=O)N1CCCN(CC)C2(CCOCC2)C1 | inactive
O=c1[nH]c(C2CCN(Cc3ccccc3C(F)(F)F)CC2)nn1Cc1ccccc1 | inactive
CN(Cc1ccccc1)[C@@H]1C[C@@H]2COCC[C@]2(c2ccccc2)C1 | inactive
CN1CCC2(C1)CN(Cc1ccccc1)c1ccc(C(=O)NCC3CC3)cc12 (centres undefined) | inconclusive: 79.4 µM [inhibitor, partial curve, poor fit]
COc1ccccc1CN1CCc2ncc(C(=O)NCCC(C)C)n2CC1 | inconclusive: 89.1 µM [inhibitor, partial curve, poor fit]
CC1(CNc2ccccc2)COc2ccc(C(=O)N3CCN(c4ccccn4)CC3)cc2N1 (centres undefined) | inconclusive: 50.1 µM [inhibitor, partial curve, poor fit]
COc1ccc(-c2cc3nc4c(c(=O)n3[nH]2)CN(C(=O)c2cc(CN3CCOCC3)on2)CC4)cc1 | inconclusive: 44.7 µM [inhibitor, partial curve, poor fit]
CCc1cccc2c(C(CC(=O)NCC(C)C)c3ccccc3OC)c[nH]c12 (centres undefined) | inconclusive: 50.1 µM [inhibitor, partial curve, poor fit]

Compound | Potency
O=C(C1CCCC1)N1CCC(Cc2ccccc2)(C(=O)O)CC1 | inconclusive: 56.2 µM [inhibitor, partial curve, poor fit]
Cc1ccc(OCc2nc(C3CN(C(=O)c4ccc(C)nc4)C3)no2)cc1 | inactive
CCC(C(=O)Nc1ccc2ncnc(N3CCCC3)c2c1)c1ccccc1 (centres undefined) | inconclusive: 50.1 µM [inhibitor, partial curve, poor fit]
CC(C)NC(=O)c1nc(-c2ccc(Cl)cc2Cl)c2cnccn12 | inconclusive: 50.1 µM [inhibitor, partial curve, poor fit]
O=C(Cc1ccccc1)Nc1ccnn1C1CCN(Cc2ccc3cccc(F)c3n2)CC1 | inactive
O=S(=O)(c1ccccc1Cl)N1CCC(c2noc(COCc3ccccc3)n2)CC1 | inconclusive: 44.7 µM [inhibitor, partial curve, poor fit]
CCn1ccc(C(=O)NC2CCCN(c3cc(-c4ccc(Cl)cc4)[nH]n3)C2)n1 (centres undefined) | inconclusive: 50.1 µM [inhibitor, partial curve, poor fit]
COC(=O)N1CCC(c2nn(-c3ccccn3)c(=O)[nH]2)CC1 | inactive
CN1CCN([C@@H]2[C@H](O)[C@H](CO)O[C@@H]2CNC(=O)c2ccccc2)CC1 | inactive
Cc1nnc2ccc(N3CCC(NC(=O)NC(C)C)CC3)nn12 | inactive
CCn1ncc(CN2CCCC23CCN(c2cc(C)nc4ccccc24)CC3)c1C | inconclusive: 50.1 µM [inhibitor, partial curve, poor fit]
O=C(Cc1cccc(Cl)c1)NC1CCN(C(=O)c2ccc(-c3cccs3)cc2)CC1 | inconclusive: 2.82 µM [inhibitor, full curve, poor fit]
COC(=O)c1ccc(CN2C(=O)[C@@H]3C[C@@H](O)CN3C3(CN(CC4CCCCC4)C3)C2=O)cc1 | inactive
CN(Cc1ccc(-c2ccccc2)cc1)C(=O)c1ccccc1 | inconclusive: 44.7 µM [inhibitor, partial curve]
O=C(O)CCC(=O)N[C@H]1CCN2C(=O)c3cc(-c4cccc(C(F)(F)F)c4)ccc3NC(=O)[C@H]12 | inconclusive: 89.1 µM [inhibitor, partial curve, poor fit]
COc1ccc(C(=O)NC2CCN(Cc3cccc(-c4ccc(F)c(F)c4)c3)CC2)cc1 | active: 22.4 µM
COCCOCc1nc(C2CCN(C(=O)c3[nH]nc4c3CCc3cc(OC)ccc3-4)CC2)no1 | inconclusive: 50.1 µM [inhibitor, partial curve, poor fit]
COc1cc(NC(=O)c2cc3c(N4CCCC4)nc(C)cn3n2)cc(OC)c1OC | inconclusive: 44.7 µM [inhibitor, partial curve, poor fit]
Cc1nn(-c2ccccc2)c(Oc2ccccc2F)c1CCC(=O)NC(C)C | inconclusive: 50.1 µM [inhibitor, partial curve, poor fit]
CC(C)c1nc2c(c(-c3ccc(Cl)cc3)n1)CCN(CC1CCCCC1)CC2 | inconclusive: 50.1 µM [inhibitor, partial curve, poor fit]
COCc1ccccc1-c1cn(C)c(=O)n2cc(COc3ccc(Cl)cc3)nc12 | inconclusive: 89.1 µM [inhibitor, partial curve, poor fit]
CC1(C)[C@H](Cc2cc(CN3CCCCC3)on2)C[C@@H]1NCc1ccccn1 | active: 112 µM

Compound | Potency
COc1ccccc1CNC(=O)C1N(C(C)C)C(=O)C12CCCC2 (centres undefined) | inactive
CCCS(=O)(=O)N1CCC(Oc2ccc(-c3noc(-c4ccccc4)n3)cc2)C1 (centres undefined) | inconclusive: 63.1 µM [inhibitor, partial curve, poor fit]
O=C(NC1CCN(c2cc(-c3cccs3)[nH]n2)CC1)c1ccccc1Cl | inconclusive: 39.8 µM [inhibitor, partial curve, poor fit]
COc1ccc(-c2ccnc3nc(-c4cccs4)nn23)cc1 | inconclusive: 44.7 µM [inhibitor, partial curve, poor fit]
CCN(CC)C(=O)CC[C@@H]1CNC(=O)[C@@H]2C[C@H](NC(=O)Nc3cccc(Cl)c3)CN12 | inactive
COc1ccc(CN2CCOC[C@H]2c2ncc(-c3ccc(OC)cc3)[nH]2)cc1 | inconclusive: 89.1 µM [inhibitor, partial curve, poor fit]
CC(C)(Oc1nn(CCOc2ccccc2)c2ccccc12)C(=O)NCC1CCOCC1 | inconclusive: 89.1 µM [inhibitor, partial curve]
O=C1Nc2ccccc2CC12CN(CC1CCOCC1)C2 | inactive
COc1ccc(CN2CC(O)CN(C(=O)Cc3ccccc3)CC2=O)cc1 (centres undefined) | inconclusive: 79.4 µM [inhibitor, partial curve, poor fit]
CC(C)CN1CCN(C(=O)c2ccc3c(c2)C(O)CCCCCN3C)CC1 (centres undefined) | inactive
Cc1nn2c(c1-c1ccccc1C(C)C)N(C(=O)c1ccnn1C)CCC2 | inconclusive: 50.1 µM [inhibitor, partial curve, poor fit]
CC(=O)N1CC2(Cc3ccccc31)CN([S+](=O)([O-])c1ccc(C)cc1)C2 | inconclusive: 50.1 µM [inhibitor, partial curve, poor fit]
Cc1ncoc1C(=O)N1CCOc2ccc(CCC(=O)NCC3CC3)cc2C1 | inactive
COc1ccc(C(=O)Nc2ncc(-c3ccc(OC)nc3)c3c2OCC3)cc1 | inconclusive: 31.6 µM [inhibitor, full curve]
CCOCCCNC(=O)CN1C(=O)C(Oc2ccc(F)cc2)C12CCCCC2 (centres undefined) | inactive
CC(C(=O)N1CCC(C(=O)N2CCCCCCNC(=O)CC2)CC1)c1ccccc1 (centres undefined) | inactive
O=C(NCc1ccc(F)cc1)C1CCCN(Cc2cccc(-c3cccs3)c2)C1 (centres undefined) | inconclusive: 44.7 µM [inhibitor, partial curve, poor fit]
O=C(NCc1ccco1)N1CCOc2ccc(CN3CCc4ccccc4C3)cc2C1 | inconclusive: 39.8 µM [inhibitor, partial curve]
Cc1cc(C)n(CCC(=O)NCC2CCN(c3cc(-c4ccc(Cl)cc4)[nH]n3)CC2)n1 | active: 31.6 µM
COc1ccc(CNC(=O)c2cc3n(n2)CC(c2ccc(Cl)cc2)OC3)c(OC)c1 (centres undefined) | inconclusive: 35.5 µM [inhibitor, partial curve]
